About 2,200 (0.71%) of roughly 310,000 compounds showed an effect of 50% or more. Effects have a minus sign here. The list shows a part of the results.
molecular target: human ether-à-go-go-related gene (hERG) potassium channel (human, UniProt Q12809); assay: primary screen, population patch clamp on CHO cells stably expressing hERG
Sequence (Q12809 whole entry, looked up): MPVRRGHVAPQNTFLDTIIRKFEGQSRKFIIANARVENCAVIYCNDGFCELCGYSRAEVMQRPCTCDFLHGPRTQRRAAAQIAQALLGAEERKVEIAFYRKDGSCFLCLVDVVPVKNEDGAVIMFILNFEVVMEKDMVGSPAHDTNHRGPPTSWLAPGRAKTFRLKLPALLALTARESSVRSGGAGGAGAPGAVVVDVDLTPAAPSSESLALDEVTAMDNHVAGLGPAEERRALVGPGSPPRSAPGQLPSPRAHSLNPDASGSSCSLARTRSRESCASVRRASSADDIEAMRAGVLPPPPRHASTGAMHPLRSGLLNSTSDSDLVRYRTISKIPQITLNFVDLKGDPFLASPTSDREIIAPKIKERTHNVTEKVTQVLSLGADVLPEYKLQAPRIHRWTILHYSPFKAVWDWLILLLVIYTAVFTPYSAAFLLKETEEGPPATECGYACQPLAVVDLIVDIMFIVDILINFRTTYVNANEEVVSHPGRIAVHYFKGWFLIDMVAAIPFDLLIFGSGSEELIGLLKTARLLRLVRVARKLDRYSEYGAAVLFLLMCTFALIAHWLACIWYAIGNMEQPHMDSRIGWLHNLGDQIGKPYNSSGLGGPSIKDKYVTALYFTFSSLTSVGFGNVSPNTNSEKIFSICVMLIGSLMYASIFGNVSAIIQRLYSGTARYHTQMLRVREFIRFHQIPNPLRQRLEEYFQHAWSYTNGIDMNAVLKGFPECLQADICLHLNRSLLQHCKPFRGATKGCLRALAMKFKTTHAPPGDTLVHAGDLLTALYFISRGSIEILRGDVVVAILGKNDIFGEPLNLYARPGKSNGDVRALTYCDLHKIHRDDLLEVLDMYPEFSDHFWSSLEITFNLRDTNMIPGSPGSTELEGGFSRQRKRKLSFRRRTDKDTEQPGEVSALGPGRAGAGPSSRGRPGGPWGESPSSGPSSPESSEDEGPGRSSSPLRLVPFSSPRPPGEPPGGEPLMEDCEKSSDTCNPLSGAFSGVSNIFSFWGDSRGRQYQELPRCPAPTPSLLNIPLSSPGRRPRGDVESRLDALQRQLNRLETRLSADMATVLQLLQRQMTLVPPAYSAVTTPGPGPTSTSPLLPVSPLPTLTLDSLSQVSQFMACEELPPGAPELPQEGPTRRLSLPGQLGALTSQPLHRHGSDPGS

Row | SMILES | hERG current change (%, negative = inhibition) at 1uM
1 | Cc1ccccc1OCC(=O)Nc1ccc2c(c1)C(=O)c1ccccc1C2=O | 16.2%
2 | CC(=O)Nc1ccc(OCC(O)CN2CCN(S(=O)(=O)c3ccc(NC(C)=O)cc3)CC2)cc1 (stereo not shown) | -11.4%
3 | O=C(CSc1nc2ccc(Nc3nc(N4CCOCC4)nc(N4CCOCC4)n3)cc2s1)Nc1ccccc1Cl | 16.8%
4 | COc1cc(NC(=O)COC(=O)c2n[nH]c3ccccc23)c(C)cc1[N+](=O)[O-] | 10.9%
5 | CC(=O)c1ccc(S(=O)(=O)N2Cc3ccccc3CC2C(=O)O)cc1 (stereo not shown) | 9.24%
6 | Cc1ccc(CC(CC(=O)NCCc2ccc3c(c2)OCO3)C(=O)O)cc1 (stereo not shown) | 0.913%
7 | O=C(Nc1cccc(C(=O)N2CCN(c3ccc(F)cc3)CC2)c1)c1ccccc1 | -18.4%
8 | CCOC(=O)COn1c(=O)c(-c2ccc(Cl)cc2)[n+]([O-])c2ccccc21 | 11.2%
9 | CC1CCN(c2cc(N)c(Cl)cc2[N+](=O)[O-])CC1 | 7.44%
10 | O=C(C1CCC(CNS(=O)(=O)c2cccc3nsnc23)CC1)N1CC=C(c2ccccc2)CC1 (stereo not shown) | 16.2%
11 | Cc1ccc(-c2nnn(C(C)C(=O)N3c4ccccc4CCc4ccccc43)n2)cc1 (stereo not shown) | 11%
12 | O=C(NCC(c1ccco1)N1CCN(c2ccccc2F)CC1)c1ccc2c(c1)OCO2 (stereo not shown) | 1.86%
13 | Cc1ccc(N2C(=O)C(NC(=O)c3c(F)cccc3F)(C(F)(F)F)C3=C2CC(C)(C)CC3=O)cc1 (stereo not shown) | 10.6%
14 | COc1ccc(N/C=C/C(=O)c2ccc(C)cc2)c([N+](=O)[O-])c1 | 19.7%
15 | COc1cccc(NC(=O)NC2CCN(CC(=O)Nc3ccccc3[N+](=O)[O-])CC2)c1 | -7.45%
16 | CC1=C(C#N)C(Nc2ccc(Cl)cn2)(C(F)(F)F)C(=O)N1 (stereo not shown) | 1.69%
17 | CC(=O)Nc1ccc(NC(=O)CSc2nnc(-c3cc4ccccc4o3)n2C)cc1 | 4.17%
18 | COCCNC(=O)CSc1nc(-c2ccccc2)c(-c2ccccc2)o1 | 2.54%
19 | C[C@H]1CCC2[C@](C)(CO)[C@@H](O)CC[C@]2(C)[C@@]12CCC(CO)(CCO)O2 (stereo partly shown) | 18.9%
20 | Cc1cccc2sc(NC(=O)C3CSC4(C)CCC(=O)N34)nc12 (stereo not shown) | 3.04%
21 | CC1CCN(c2ccc(-c3cccc(NC(=O)c4ccco4)c3)nn2)CC1 | 4.62%
22 | CN(C)C1=NCCN1CC1CCCC1 | 11.5%

Row | SMILES | hERG current change (%, negative = inhibition) at 1uM
23 | COCCCNC(=O)c1ccc(S(=O)(=O)c2ccc(Cl)cc2)c(NC(C)=O)c1 | 10.6%
24 | Fc1ccc(N/N=C/c2cccnc2)c(F)c1 | 13.1%
25 | O=C(NC1CC1)c1nc(Cn2cc([N+](=O)[O-])cn2)no1 | 15.1%
26 | COc1ccc(CCNS(=O)(=O)CCNC(=O)c2ccccc2)cc1 | 10.5%
27 | CN1C(=O)/C(=C\c2ccc(N3CCCCCC3)cc2)C(=O)NC1=S | 18.9%
28 | CC1(C)CCN2CCC(C)(C)c3c(O)ccc1c32.CS(=O)(=O)O | 11.4%
29 | Cc1ccc(Cl)cc1NC(=S)Nn1cnnc1 | 8.85%
30 | COc1ccc(/C=C2/SC(=S)N(c3ccc(S(=O)(=O)Nc4nccs4)cc3)C2=O)cc1 | 13.4%
31 | Cc1ccc(-c2cnc3c(Cl)c(C)nn3c2)cc1 | 9.07%
32 | CC1CCCC(NC(=S)NC(=O)c2ccccc2Br)C1C (stereo not shown) | 15.1%
33 | COCCNCC1C(Oc2ccc(Cl)cc2)C(=O)N1c1ccccc1C.Cl (stereo not shown) | 9.38%
34 | C=CCn1c(O)c(C2=c3ccccc3=NC2=O)sc1=Nc1ccc(O)cc1 | 9.95%
35 | O=C(NCCN1CCCC(O)C1)c1cc(COc2ccc(F)cc2Cl)on1 (stereo not shown) | 9.82%
36 | CCc1ccc(NC(=O)Cn2nc(C)n3cccc3c2=O)cc1 | 15.1%
37 | CCOc1ccccc1-c1nc(-c2ccc(NC(=O)Cc3ccc(OC)cc3)cc2)no1 | 14.7%
38 | COC(=O)c1cc(=O)nc2sc3ccccc3n12 | 9.45%
39 | Cn1c(=O)c2c(nc(OCc3cccnc3)n2Cc2c(F)cccc2Cl)n(C)c1=O | 11.5%
40 | NC(=O)[C@@H]1CCNc2c(I)cc([N+](=O)[O-])cc2C(=O)N[C@@H](CCC(=O)O)C(=O)N[C@@H](CO)C(=O)N1 | 12.9%
41 | CCOc1ccc(C(=S)N2CCCC2)cc1OC | 13.8%
42 | Cc1noc(C(=O)Nc2ccc3c(c2)OCO3)c1Cl | 3.02%
43 | COC(=O)c1cscc1S(=O)(=O)Cc1ccccc1 | 12%
44 | COc1cccc(N=Nc2c(N)[nH][nH]c2=O)c1 | 9.85%

Row | SMILES | hERG current change (%, negative = inhibition) at 1uM
45 | Cc1ccc(NC(=O)c2sccc2SCc2cccc(C(F)(F)F)c2)cc1 | 16%
46 | Cc1ccc(N2C(=O)c3n[nH]c(C)c3C2c2ccco2)cc1 (stereo not shown) | -0.0701%
47 | CCN(CC)S(=O)(=O)c1ccc(N2CCOCC2)c(NC(=O)COc2ccccc2C#N)c1 | -1.84%
48 | CCC(CC)c1nc2cc(OC)c(OC)cc2c(=O)o1 | 14.5%
49 | O=C(O)C1CC(=O)N(c2ccc(Br)cc2)C1 (stereo not shown) | 9%
50 | COCCN=C1NN=C(c2ccc(NC(C)=O)cc2)CS1 | 3%
51 | C=CCN(CC(=O)Nc1c(C)cccc1CC)C(=O)SCCC | 12.8%
52 | COc1ccc(-c2nc(CN3CCC(C(=O)N4CCOCC4)CC3)c(C)o2)cc1C | 11.8%
53 | CCn1cc(CNC(=O)C2CCC(=O)N(Cc3ccc(Cl)cc3)C2)cn1 (stereo not shown) | 12.6%
54 | Cc1c(C)n(CC(O)CN2C(=O)c3ccccc3S2(=O)=O)c2ccccc12 (stereo not shown) | 8.88%
55 | Cc1cc(NC(=O)c2ccc3c(c2)OCO3)no1 | 21.3%
56 | CCCCN(CCCC)c1nc(OC)nc(-n2nnc(C(C)=O)c2C)n1 | -3.57%
57 | CC(=O)Oc1cccc(C(=O)Nc2cccc(C(=O)Nc3ccccc3C(=O)O)c2)c1 | 12.8%
58 | Clc1ccc(-c2nnc3ccccn23)cc1 | -2.74%
59 | CCOc1cc(C(=O)Nc2nnc(S(=O)(=O)N3CCOCC3)s2)cc(OCC)c1OCC | 13.9%
60 | Cc1nc([N+](=O)[O-])c(Br)n1CC(=O)c1cccc([N+](=O)[O-])c1 | -2.8%
61 | N#Cc1c(-c2ccccc2)nc(N2CCCCCC2)[nH]c1=O | 6.09%
62 | N#CCSCC(=O)Nc1ccccc1 | 6.23%
63 | CCN(CC(=O)NCc1ccc(F)cc1)C(=O)CN1CCN(c2cc(Cl)ccc2C)CC1 | -68.2%
64 | CCOC(=O)c1ccccc1NC(=O)COC(=O)CSCC(=O)Nc1cc(C)on1 | 5.88%
65 | COc1ccc(-c2noc(CSc3nnc(Cc4ccccc4)n3-c3ccc(Cl)cc3)n2)cc1 | 16.1%
66 | NC(=O)CC(NC(=O)c1cccc(Br)c1)c1ccc(NC2CCC2)c([N+](=O)[O-])c1 (stereo not shown) | -2.76%

Row | SMILES | hERG current change (%, negative = inhibition) at 1uM
67 | C=CCC(=O)OCC(=O)Nc1ccc(Cl)cn1 | 0.45%
68 | CCC(=O)N1CCN(c2ccc(NC(=O)c3ccc(N4CCOCC4)c([N+](=O)[O-])c3)cc2)CC1 | 9.74%
69 | O=C(Nc1ccncc1)Nc1cc(Cl)ccc1Cl | 15%
70 | COc1cccc(/C=C2\N=C(C3CCCCC3)OC2=O)c1OC | -2.27%
71 | Cc1ccccc1C(=O)Nc1ccc2c(c1)C(=O)NC2=O | 12.8%
72 | Cc1ccc(S(=O)(=O)N(C(=O)c2ccncc2)c2ccc(OC(=O)c3ccncc3)c3ccccc23)cc1 | 2.31%
73 | CCCC1=Nc2cc(C(=O)NCCCOC(C)C)ccc2Sc2ccccc21 | -1.28%
74 | CSc1nc(-c2ccccc2F)c(C#N)c(=O)n1C | 7.78%
75 | COc1ccc(NC2CCCN(C(=O)CCCn3cncn3)C2)cc1 (stereo not shown) | 13.3%
76 | COc1ccc(C)cc1NC(=O)C(Sc1nncn1C)c1ccccc1 (stereo not shown) | -0.178%
77 | COc1cc2ccccc2cc1C(=O)N1CCCC1 | 9.35%
78 | O=C(N/N=C/C1CC2C=CC1C2)c1ccccc1O (stereo not shown) | 9.6%
79 | CC(=O)N1CCN(C(=O)c2cc(-c3ccc(C)o3)nc3ccccc23)CC1 | 2.37%
80 | Cn1c(CSc2ncccn2)nnc1SCC(=O)N1CCCC1 | 17.6%
81 | Cn1c2ccccc2c2nnc(SCC(=O)Nc3ccccc3F)nc21 | 6.28%
82 | Cc1sc2ncn(CC(=O)OCC(=O)NC(C)(C)C)c(=O)c2c1C | 17%
83 | O=C(CN(C(=O)CCC(=O)Nc1nccs1)c1ccccc1F)NCC1CCCO1 (stereo not shown) | 6.33%
84 | Cc1cc(OCC(=O)NCCc2ccc(S(N)(=O)=O)cc2)c2c(C)cc(=O)oc2c1 | 12%
85 | COc1ccccc1NC1(C#N)CCCCC1 | 10.2%
86 | O=C(CCNC(=O)c1ccccc1Cl)NCCc1ccc(Cl)cc1 | 5.86%
87 | O=C(N/N=C/c1ccc2c(c1)OCO2)c1ccc(NC(=O)c2ccc(F)cc2)cc1 | 10.9%
88 | O=C(NC1CCCC1)C(c1ccsc1)N(Cc1ccco1)C(=O)Cc1cccs1 (stereo not shown) | 1.01%

— PMC4336329 (PLoS ONE, 2015)
